# The list shows a part of the results.
# B1: ENSG00000135709:stop:overlap|stop_codon|ENSG00000135709|stop_codon|NA|stop_codon (ssRNA)
# RNA: GGGAGUUCUACAGUCCGACGAUCACCUGGAUGAAGAGCAAUACAAGCUGCUUAGUGACCACAUUGAGCAAAUGGCCACUGAGUAGGCCCCAGAGGUCGCACUCCGCAGGAGGACUGAGGCCAUGUGCCAUUCUCCCGGGCCCACAACAGAGGAUUGAGCAUCA
# B2: chr1:113590523:113590624:+|CDS|ENSG00000081026|unk|total|mutant (ssRNA)
# RNA: GGGAGUUCUACAGUCCGACGAUCUCAUCUGACUGGAUGAAGACUGUUCCAAGUUACAACCAAACAAACCGCUCCAUGGACUUCCGAAAUUAUAUGAUGAGAGAUGAGACUCUGGAACCACUGCCCAAAAACUGGGAAAUGGCCCAACAGAGGAUUGAGCAUCA
# B3: chr1:86742159:86742388:+|CDS|ENSG00000097033|unk|total|mutant (ssRNA)
# RNA: GGGAGUUCUACAGUCCGACGAUCUGUACCAUCAGUUUUACCAAAUGCGAUUGGUUCUUCUGCCAUGGCUUCAACAAGUGGCCCCGUAAUCACCUCUCCUUCCAACCUCAGUGACCUUAAGGAGUGCCGUGGCAGCAGAAAGGCCAACAGAGGAUUGAGCAUCA
# B4: chr15:89832191:89832292:-|3pUTR|ENSG00000157823|msi1|total|mutant (ssRNA)
# RNA: GGGAGUUCUACAGUCCGACGAUCCCCGGCCGCUGGAACCACAGGCACGCAACCACCACUCCUGGCCCGUUUUAUUUUUUCCGCCGAAUAAGGUCUCACUAUGUUGCACAGGCUGGUCUCUAACUCCUUACCUCAAGCCAUCCUCAACAGAGGAUUGAGCAUCA
# B5: chr8:143040838:143043334:-|three_prime_utr|ENSG00000291309|control|control|control (ssRNA)
# RNA: GGGAGUUCUACAGUCCGACGAUCACCACUUUUUUCAGAGCUGGGCCUCAGAGACCAGGCCCCACCACUGGCUGCUUGGGACCUAGGGUCAUAGAGAAACCGUGGCCCAGGGCGGGAGUCCCCAGCUCCAUCCAGCUUGCCACUCAACAGAGGAUUGAGCAUCA
# B6: chr15:41517175:41517691:-|three_prime_utr|ENSG00000103932|control|control|control (ssRNA)
# RNA: GGGAGUUCUACAGUCCGACGAUCGUCAGCACUACCUCCAGAGACUGACUUCAACAGUGCUCCAAAAUGGGGUAUCAGAGACCUAGGAUAGUUGAUAUAGAUGGAAAGAUGGGUACGUUGUCCUGUAUCCAGCCUUUCAACAGACAACAGAGGAUUGAGCAUCA
# B7: chr11:20121310:20121411:+|3pUTR|ENSG00000166833|msi1|total|mutant (ssRNA)
# RNA: GGGAGUUCUACAGUCCGACGAUCAUUGUAACACCGAAAUUGUAAAUAAUUGAUUAAAGUGCUGCAUUUUGAUGAAUUUUUUCCCGCCAUUUUUAAAGAGAAAACCCGGAAUUGAGUAUUUUGUGUACGGUAUGUUUCCAUCCUCAACAGAGGAUUGAGCAUCA
# B8: chr22:45344062:45344555:-|three_prime_utr|ENSG00000077935|control|control|control (ssRNA)
# RNA: GGGAGUUCUACAGUCCGACGAUCUCCACAGGAGACUUCUGGAGCAAGCAGGACCAGCCUGGUGCACCCUUUAAGAGAAACCUUAGUCGUUCUAGCCAAAGAGGCUGUGGCUCACUUUAGUUGAGUGUUCAGACCUCAUUCUAGCAACAGAGGAUUGAGCAUCA
# B9: chr22:46256563:46263322:-|CDS|ENSG00000130943|control|control|control (ssRNA)
# RNA: GGGAGUUCUACAGUCCGACGAUCAAUUCGGUUUUACUUGUCGAACCCAGAAGACUUCAUUCCCUUUCAUGCAGUUUCUCAGGUAGAUCACAUUAUGAGGAUAAUUUUGGGUUUCCUGUUAUUUCUGACAAUUUUGAAGACCCUCAACAGAGGAUUGAGCAUCA
# B10: ENSG00000107863:be:win_1001|CDS|ENSG00000107863|bound_else_gene|NA|bound_elsewhere_windowed (ssRNA)
# RNA: GGGAGUUCUACAGUCCGACGAUCCAGGCUCCAGAUCACUGGAACCUUCUGGAAUUUUACUUAAGUCUGGAAAUUACAGUGGACAUUCUGAUGGAAUCUCAAGCAGCAGAUCUCAAGCUGUGGAGGCUCCCUCUGUAUCUGUUACAACAGAGGAUUGAGCAUCA
# B11: ENSG00000100401:stop:overlap|stop_codon|ENSG00000100401|stop_codon|NA|stop_codon (ssRNA)
# RNA: GGGAGUUCUACAGUCCGACGAUCGCGCCCUGGAAUCCUGCUCCUUCGCCCGCCACAGUCUGCUGCAGACGCUGUACAAGGUCUAGACUCAAAGCCUCUCCCAUCCCUUGGCCUGGACCAGUGAGCUGGGGAGGGACUCGGAUGCAACAGAGGAUUGAGCAUCA
# B12: chr1:162783069:162783171:+|3pUTR|ENSG00000162733|unk|FALSE|unique (ssRNA)
# RNA: GGGAGUUCUACAGUCCGACGAUCUGAAAGUAGUUCAAAUUUGAAUUAGAAGAAUGAAGCUAGGACUUAUUUGGAAAAGGAGAUAGAAAAAAAAUGAUCAGAAACUGUGGGGCCUUAUUACCUUUGCAGUAAGUUAUCUUCUUCCAACAGAGGAUUGAGCAUCA
# B13: chrX:65741840:65741941:+|3pUTR|ENSG00000147065|msi1|total|mutant (ssRNA)
# RNA: GGGAGUUCUACAGUCCGACGAUCAAAUUGUUUUUGGAGGGGUUUAUGCUCAAUCCAUGUUCUAUUUCAGUGCCAAUAAAAUUCCGGAAGACUUCACAGUGACUCAAUCGUUCUUUGUGGUAUGAGUGGGCCGCUGUAAGAUAUCAACAGAGGAUUGAGCAUCA
# B14: chrX:52062232:52062664:-|CDS|ENSG00000187243|control|control|control (ssRNA)
# RNA: GGGAGUUCUACAGUCCGACGAUCGGCCACGUGGAGAGCUGGCGUCAGCAGUGGCACCAAUGGAGGGGCCAGCACCAGCGUCCUAGAUGGCCCCAGCACCAGCUCCACCAUCCGGACCAGAAAUGCUGCCAGAGCUGGCGCCAGCAACAGAGGAUUGAGCAUCA
# Biological target: MSI1 full-length (mouse, UniProt Q61474 1-362)
# Assay: nsRBNS (natural sequence RNA bind-n-seq); RBNS binding buffer (assumed for nsRBNS): 25 mM Tris pH 7.5, 150 mM KCl, 3 mM MgCl2, 0.01% Triton X-100, 500 ug/ml BSA, 20 U/ml SUPERase-In, 4 C; UNK is unkempt and MSI1 is Musashi-1; names of the RNAs are library labels; protein concentration not given here; high values mean tight binding
# Chain of UniProt Q61474 (Q61474 whole entry): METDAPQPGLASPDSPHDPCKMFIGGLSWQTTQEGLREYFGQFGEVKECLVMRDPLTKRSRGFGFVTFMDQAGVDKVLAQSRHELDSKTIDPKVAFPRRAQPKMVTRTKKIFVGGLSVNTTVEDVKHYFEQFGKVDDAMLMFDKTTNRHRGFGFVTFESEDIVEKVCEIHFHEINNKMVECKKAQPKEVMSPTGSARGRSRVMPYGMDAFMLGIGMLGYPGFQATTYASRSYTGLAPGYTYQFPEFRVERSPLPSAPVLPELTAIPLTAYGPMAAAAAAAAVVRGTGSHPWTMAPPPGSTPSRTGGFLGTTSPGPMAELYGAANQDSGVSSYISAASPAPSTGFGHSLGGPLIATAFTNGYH
row,Binder,binding signal [enrichment R]
1,B1,0.455
2,B2,0.335
3,B3,0.35
4,B4,0.746
5,B5,0.475
6,B6,2.92
7,B7,0.869
8,B8,1.32
9,B9,0.369
10,B10,0.493
11,B11,0.362
12,B12,1.62
13,B13,0.205
14,B14,0.399

# Reference: paper PMC12136788
